Data as given in EP4635500A1, “THERAPEUTIC AGENT FOR BACTERIAL INFECTION” (Sumitomo Pharma Co., Ltd., priority 2022, dated 2024).
Converted amounts (≈) assume the structure as drawn. Like-named read-outs stand apart in the source and are kept apart here.

Assays:
[1] = tested on: A. baumannii; test: MIC, broth microdilution, CDC/FDA Antibiotic Resistance Isolate Bank (Example 7, Tables 9, 13, 14); format: cell-based, Acinetobacter baumannii
[2] = tested on: Acinetobacter baumannii CDC-277; test: Respiratory (lung) infection model of neutropenic mouse (Example 17, FIG. 3); details: 26 hours after infection; MEPM 100 mg/kg + cilastatin 100 mg/kg q3h, 8 doses s.c.
[3] = Acinetobacter baumannii, A. baumannii KUB No. 5530, AR Bank #33, OXA-94, NDM-1, read-out: MIC
[4] = Acinetobacter baumannii, A. baumannii KUB No. 5532, AR Bank #35, OXA-66, OXA-72, read-out: MIC
[5] = Acinetobacter baumannii, A. baumannii KUB No. 5533, AR Bank #36, OXA-24, OXA-65, read-out: MIC
[6] = Acinetobacter baumannii, A. baumannii KUB No. 5542, AR Bank #45, OXA-23, OXA-69, read-out: MIC
[7] = Acinetobacter baumannii, A. baumannii KUB No. 5549, AR Bank #52, OXA-58, OXA-100, read-out: MIC
[8] = Acinetobacter baumannii, A. baumannii KUB No. 5553, AR Bank #56, OXA-23, OXA-66, read-out: MIC
[9] = Acinetobacter baumannii, A. baumannii KUB No. 5560, AR Bank #63, OXA-23, OXA-24, OXA-65, read-out: MIC

| SMILES | MIC [1, 3] [µg/mL] | MIC [1, 4] [µg/mL] | MIC [1, 5] [µg/mL] | MIC [1, 6] [µg/mL] | MIC [1, 7] [µg/mL] | MIC [1, 8] [µg/mL] | MIC [1, 9] [µg/mL] | MIC ([1]; A. baumannii KUB No. 5530, AR Bank #33, OXA-94, NDM-1) [µg/mL] | MIC ([1]; A. baumannii KUB No. 5532, AR Bank #35, OXA-66, OXA-72) [µg/mL] | MIC ([1]; A. baumannii KUB No. 5533, AR Bank #36, OXA-24, OXA-65) [µg/mL] | MIC ([1]; A. baumannii KUB No. 5542, AR Bank #45, OXA-23, OXA-69) [µg/mL] | MIC ([1]; A. baumannii KUB No. 5549, AR Bank #52, OXA-58, OXA-100) [µg/mL] | MIC ([1]; A. baumannii KUB No. 5553, AR Bank #56, OXA-23, OXA-66) [µg/mL] | MIC ([1]; A. baumannii KUB No. 5560, AR Bank #63, OXA-23, OXA-24, OXA-65) [µg/mL] | increase in the number of bacteria in the lungs compared to the start of treatment [2] [logs] |
| --- | --- | --- | --- | --- | --- | --- | --- | --- | --- | --- | --- | --- | --- | --- | --- |
| NCC[C@H](O)C(=O)N[C@@H]1C[C@H](N)[C@@H](O[C@H]2O[C@H](CN)[C@@H](O)[C@H](O)[C@H]2O)[C@H](O)[C@H]1O[C@H]1O[C@H](CO)[C@@H](O)[C@H](N)[C@H]1O [Amikacin, amikacin] | 2 (≈ 3.42 µM) | 4 (≈ 6.83 µM) | 64 (≈ 109 µM) | 2 (≈ 3.42 µM) | 0.5 (≈ 0.854 µM) | 2 (≈ 3.42 µM) | 16 (≈ 27.3 µM) |  |  |  |  |  |  |  |  |
| CO/N=C(\C(=O)N[C@@H]1C(=O)N2C(C(=O)[O-])=C(C[n+]3ccn4ncccc43)CS[C@H]12)c1nsc(N)n1 [Cefozopran, cefozopran] | > 64 | 64 (≈ 124 µM) | 32 (≈ 62.1 µM) | 64 (≈ 124 µM) | 2 (≈ 3.88 µM) | > 64 | > 64 |  |  |  |  |  |  |  |  |
| C[C@H]1COc2c(N3CCN(C)CC3)c(F)cc3c(=O)c(C(=O)O)cn1c23 [Levotloxacin] |  |  |  |  |  |  |  | 8 (≈ 22.1 µM) | 16 (≈ 44.3 µM) | 64 (≈ 177 µM) | 8 (≈ 22.1 µM) | 4 (≈ 11.1 µM) | 16 (≈ 44.3 µM) | 16 (≈ 44.3 µM) |  |
| C[C@@H](O)[C@H]1C(=O)N2C(C(=O)O)=C(S[C@@H]3CN[C@H](C(=O)N(C)C)C3)[C@H](C)[C@H]12 [MEPM, meropenem] |  |  |  |  |  |  |  |  |  |  |  |  |  |  | 0.1 |
| CC(C)(O/N=C(\C(=O)N[C@@H]1C(=O)N2C(C(=O)[O-])=C(C[N+]3(CCNC(=O)c4ccc(O)c(O)c4Cl)CCCC3)CS[C@H]12)c1csc(N)n1)C(=O)O [Cefiderocol, cefiderocol] | 2 (≈ 2.66 µM) | 0.12 (≈ 0.16 µM) | 0.5 (≈ 0.665 µM) | 0.5 (≈ 0.665 µM) | ≤ 0.06 | 0.25 (≈ 0.332 µM) | 2 (≈ 2.66 µM) |  |  |  |  |  |  |  |  |
